Experiment [1] addresses T1, SRK2A-cLUC (Arabidopsis thaliana) (UniProt P43291).
T1 sequence: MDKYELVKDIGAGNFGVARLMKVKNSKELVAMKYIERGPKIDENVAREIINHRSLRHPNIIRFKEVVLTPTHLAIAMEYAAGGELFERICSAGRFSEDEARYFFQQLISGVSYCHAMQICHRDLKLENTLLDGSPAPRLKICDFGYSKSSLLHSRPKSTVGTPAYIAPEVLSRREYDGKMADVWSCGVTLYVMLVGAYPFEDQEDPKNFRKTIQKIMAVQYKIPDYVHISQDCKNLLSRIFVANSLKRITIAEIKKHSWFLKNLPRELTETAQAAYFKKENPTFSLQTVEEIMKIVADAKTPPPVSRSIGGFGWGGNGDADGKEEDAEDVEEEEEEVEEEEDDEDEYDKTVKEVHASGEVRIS
Kind of experiment: split reporter; split-luciferase complementation in infiltrated N. benthamiana leaves; nLUC and cLUC fusions transiently expressed; luciferin infiltrated, luminescence imaged.

Chains of the proteins cited; added tags and fusions are not shown.
UniProt Q39026: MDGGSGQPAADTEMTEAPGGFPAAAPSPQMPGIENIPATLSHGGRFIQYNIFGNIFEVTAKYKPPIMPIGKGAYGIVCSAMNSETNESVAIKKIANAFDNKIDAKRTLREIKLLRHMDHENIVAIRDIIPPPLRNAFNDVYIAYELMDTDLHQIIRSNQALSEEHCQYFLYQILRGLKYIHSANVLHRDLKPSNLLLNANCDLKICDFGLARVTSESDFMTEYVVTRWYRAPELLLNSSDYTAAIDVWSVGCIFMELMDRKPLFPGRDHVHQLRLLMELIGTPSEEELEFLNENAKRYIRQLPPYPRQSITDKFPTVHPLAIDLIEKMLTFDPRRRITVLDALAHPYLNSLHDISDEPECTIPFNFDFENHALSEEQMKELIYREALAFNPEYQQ

In experiment [2] the target is T2, SRK2G-cLUC (Arabidopsis thaliana) (UniProt P43292).
T2 sequence: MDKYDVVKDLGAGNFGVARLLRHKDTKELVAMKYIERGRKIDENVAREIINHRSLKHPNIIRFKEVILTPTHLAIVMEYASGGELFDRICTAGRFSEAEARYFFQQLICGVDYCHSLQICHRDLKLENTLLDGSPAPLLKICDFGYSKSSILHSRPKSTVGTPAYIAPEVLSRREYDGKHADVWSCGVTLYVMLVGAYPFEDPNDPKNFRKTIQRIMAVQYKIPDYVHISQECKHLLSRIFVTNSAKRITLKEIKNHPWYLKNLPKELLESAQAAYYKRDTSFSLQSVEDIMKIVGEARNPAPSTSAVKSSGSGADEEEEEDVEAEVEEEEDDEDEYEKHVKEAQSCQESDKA
The description is as above.

Experiment [3] concerns the target T3, SRK2G-VenusN (Arabidopsis thaliana) (UniProt P43292).
T3 sequence: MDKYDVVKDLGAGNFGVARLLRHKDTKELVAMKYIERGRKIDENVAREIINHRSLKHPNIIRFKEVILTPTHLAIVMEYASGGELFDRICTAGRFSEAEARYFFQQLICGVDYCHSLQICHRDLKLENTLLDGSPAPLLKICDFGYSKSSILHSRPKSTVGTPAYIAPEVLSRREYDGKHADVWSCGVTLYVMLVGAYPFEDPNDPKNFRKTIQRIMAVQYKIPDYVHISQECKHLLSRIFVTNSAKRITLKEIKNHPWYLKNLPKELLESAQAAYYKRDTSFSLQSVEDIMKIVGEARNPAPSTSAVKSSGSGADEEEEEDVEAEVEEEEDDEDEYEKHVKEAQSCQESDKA
The experiment is described as follows: split reporter; BiFC in N. benthamiana leaves; VenusN and SCFP3AC fusions; leaves treated with water or 500 mM mannitol for 5 h; confocal microscopy.

Experiment [4] has as its target MPK6 (UniProt Q39026). The experiment is described as above.
Experiment [5] addresses T4, SRK2A-VenusN (Arabidopsis thaliana) (UniProt P43291).
T4 sequence: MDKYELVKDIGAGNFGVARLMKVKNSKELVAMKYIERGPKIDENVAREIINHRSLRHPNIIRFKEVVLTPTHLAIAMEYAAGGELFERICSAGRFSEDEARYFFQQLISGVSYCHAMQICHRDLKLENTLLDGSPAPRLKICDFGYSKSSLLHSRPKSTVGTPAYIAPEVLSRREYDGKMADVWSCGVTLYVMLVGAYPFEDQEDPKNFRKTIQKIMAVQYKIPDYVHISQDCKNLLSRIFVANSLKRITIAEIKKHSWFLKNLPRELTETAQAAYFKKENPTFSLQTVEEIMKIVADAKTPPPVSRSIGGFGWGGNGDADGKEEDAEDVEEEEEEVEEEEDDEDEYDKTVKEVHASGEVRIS
The description is as above.

No constants are given. Whether binding was seen depends on the method and setting. Binding seen in cells or lysates may run through a third protein. Some results given as binding are weak or reduced against the parent protein; the word gives no strength. For some of these results: Sequences can lack the tags named with a protein.

We go through four molecules from paper PMC7069986.

B1: RAF24-nLUC (protein, UniProt O64768 1-1257)
chain: MDQAKGYEHVRYTAPDPRDEGLGSINQRFSHDSSTNVNTYVRPPDYGVSTPARPVLNYSIQTGEEFAFEFMRDRVIMKPQFIPNVYGEHSGMPVSVNLSALGMVHPMSESGPNATVLNIEEKRQSFEHERKPPSRIEDKTYHELVQSAPVISSKNDTGQRRHSLVSSRASDSSLNRAKFLCSFGGKVIPRPRDQKLRYVGGETRIIRISKTISFQELMHKMKEIFPEARTIKYQLPGEDLDALVSVSSDEDLQNMMEECIVFGNGGSEKPRMFLFSSSDIEEAQFVMEHAEGDSEVQYVVAVNGMDLSSRRSSLGLSPPGNNLDELLHGNFDRKIDRAATEPAVASLTPLAGNESLPASQTSQPVTGFSTGNEPFSQPYLGQQLQFPGLGNHQIYTSGHMASIGYIDEKRSAPLHVQPQPHYIPYSVNPETPLESLVPHYPQKPEQGFLREEQIFHVQDPETSSKEAKMRRDDSFQKVNDHPISTVESNLSAKEPKMRRESSTPRVNEYPVSSMPSDLIVPDDLPKEEAPIVTQTSSSTPDPSSSTLSEKSLRKSEDHVENNLSAKEPKMRKEHSTTRVNEYSVSSVSSDSMVPDQALKEEAPISMKISNSTPDPKSLVYPEKSLRTSQEKTGAFDTTNEGMKKNQDNQFCLLGGFSVSGHGTSNNSSSNVSNFDQPVTQQRVFHSERTVRDPTETNRLSKSDDSLASQFVMAQTTSDAFLPISESSETSHEANMESQNVHPTAPVIPAPDSIWTAEGSMSQSEKKNVETNTPEHVSQTETSAKAVPQGHNEKGDIVVDINDRFPREFLADILKTKESLNFPGLGPLHADGAGVSLNIQNNDPKTWSYFRNLAQDEFERKDLSLMDQDHPGFPTSMTNTNGVPIDYSYPPLQSEKVASSQIHPQIHFDGNIKPDVSTITIPDLNTVDTQEDYSQSQIKGAESTDATLNAGVPLIDFMAADSGMRSLQVIKNDDLEELKELGSGTFGTVYHGKWRGTDVAIKRIKRSCFIGRSSEQERLTSEFWHEAEILSKLHHPNVMAFYGVVKDGPGGTLATVTEYMVNGSLRHVLLSNRHLDRRKRLIIAMDAAFGMEYLHSKSIVHFDLKCDNLLVNLKDPARPICKVGDFGLSKIKRNTLVTGGVRGTLPWMAPELLSGSSSKVSEKVDVFSFGIVLWEILTGEEPYANMHYGAIIGGIVNNTLRPTVPNYCDPEWRMLMEQCWAPDPFVRPAFPEIARRLRTMSSSAVHTKPHAVNHQIHK
With B1, the binding entry in experiment [1] and in experiment [2] was “binds” throughout.

B2: RAF24-SCFP3AC (protein, UniProt O64768 1-1257)
chain: MDQAKGYEHVRYTAPDPRDEGLGSINQRFSHDSSTNVNTYVRPPDYGVSTPARPVLNYSIQTGEEFAFEFMRDRVIMKPQFIPNVYGEHSGMPVSVNLSALGMVHPMSESGPNATVLNIEEKRQSFEHERKPPSRIEDKTYHELVQSAPVISSKNDTGQRRHSLVSSRASDSSLNRAKFLCSFGGKVIPRPRDQKLRYVGGETRIIRISKTISFQELMHKMKEIFPEARTIKYQLPGEDLDALVSVSSDEDLQNMMEECIVFGNGGSEKPRMFLFSSSDIEEAQFVMEHAEGDSEVQYVVAVNGMDLSSRRSSLGLSPPGNNLDELLHGNFDRKIDRAATEPAVASLTPLAGNESLPASQTSQPVTGFSTGNEPFSQPYLGQQLQFPGLGNHQIYTSGHMASIGYIDEKRSAPLHVQPQPHYIPYSVNPETPLESLVPHYPQKPEQGFLREEQIFHVQDPETSSKEAKMRRDDSFQKVNDHPISTVESNLSAKEPKMRRESSTPRVNEYPVSSMPSDLIVPDDLPKEEAPIVTQTSSSTPDPSSSTLSEKSLRKSEDHVENNLSAKEPKMRKEHSTTRVNEYSVSSVSSDSMVPDQALKEEAPISMKISNSTPDPKSLVYPEKSLRTSQEKTGAFDTTNEGMKKNQDNQFCLLGGFSVSGHGTSNNSSSNVSNFDQPVTQQRVFHSERTVRDPTETNRLSKSDDSLASQFVMAQTTSDAFLPISESSETSHEANMESQNVHPTAPVIPAPDSIWTAEGSMSQSEKKNVETNTPEHVSQTETSAKAVPQGHNEKGDIVVDINDRFPREFLADILKTKESLNFPGLGPLHADGAGVSLNIQNNDPKTWSYFRNLAQDEFERKDLSLMDQDHPGFPTSMTNTNGVPIDYSYPPLQSEKVASSQIHPQIHFDGNIKPDVSTITIPDLNTVDTQEDYSQSQIKGAESTDATLNAGVPLIDFMAADSGMRSLQVIKNDDLEELKELGSGTFGTVYHGKWRGTDVAIKRIKRSCFIGRSSEQERLTSEFWHEAEILSKLHHPNVMAFYGVVKDGPGGTLATVTEYMVNGSLRHVLLSNRHLDRRKRLIIAMDAAFGMEYLHSKSIVHFDLKCDNLLVNLKDPARPICKVGDFGLSKIKRNTLVTGGVRGTLPWMAPELLSGSSSKVSEKVDVFSFGIVLWEILTGEEPYANMHYGAIIGGIVNNTLRPTVPNYCDPEWRMLMEQCWAPDPFVRPAFPEIARRLRTMSSSAVHTKPHAVNHQIHK
For B2, the binding entry is reported as “binds” in experiment [3], “no binding” in experiment [4] and “binds” in experiment [5].

B3: RAF20-nLUC (protein, UniProt Q9SAJ2 1-1248)
chain: MDKARHQQLFQHSMEPGYRNETVPQPFMPDQTGSASANMRPPNSNGSDVKAVHNFSIQTGEEFSLEFMRDRVIPQRSSNPNGAGDMNYNTGYMELRGLIGISHTGSECASDVSRFSTVENGTSDIERTNSSLHEFGNKLNHVQSAPQALLSKDSSVGNLHGYKNTSSSASGSVTAKVKILCSFGGKILPRPGDSKLRYVGGETHIISIRKDISWQELRQKILEIYYQTRVVKYQLPGEDLDALVSVSSEEDLQNMLEEYNEMENRGGSQKLRMFLFSISDMDDALLGVNKNDGDSEFQYVVAVNGMDIGSGKNSTLLGLDSSSANNLAELDVRNTEGINTIAGDVVGVGASQLMVNGFQQTSAQQSESIPPSSSLHYSQSIPLNAAYQLQQSVPPSSALHYPQSITPGSSLQYPQSITPGSSYQYPQSIIPGSASSYGIYPQYYGHVVQHGERERFPLYPDHSSNYSAIGETTSSIPIQGHVSQQGGWAEGYPYPGSTPKSTQALAEEQKVSSDMKIREEVEPENRKTPGNDHQNPPQIDDVEVRNHNQVREMAVATTPPSQDAHLLPPSRDPRQNTTAKPATYRDAVITGQVPLSGIEDQLSTSSSTYAPVHSDSESNLIDLNYPEPEQSSQRVYCSERIPREQLELLNRLSKSDNSLSSQFVTSESPANTAQQDSGKEAVGKSHDEFKTVNDDANHHTHKDVETIFEKVGVSDETLESEPLHKIVNPDDANKNRVVNGADTEIGVSNLSHVNAAMSHVIPEEQASLQGDILIDINDRFPRDFLSEIFSQAISEDTSTVRPYPHDGAAVSMNVQNHDRKNWSYFQQLAEDQFIQRDVVLDQADSRIPSDRKDGGESSRLPYVSPLSRDGISTNLANPQLTLGQDYGGNFSEKDGGGTGSIPPALENEQMKVTESEEFGAMVENLRTPDSEPKDEKTETRHAALPPLGSEFDYSGLQIIKNEDLEELRELGSGTFGTVYHGKWRGSDVAIKRIKKSCFAGRSSEQERLTGEFWGEAEILSKLHHPNVVAFYGVVKDGPGGTLATVTEYMVDGSLRHVLVRKDRHLDRRKRLIIAMDAAFGMEYLHSKNTVHFDLKCDNLLVNLKDPSRPICKVGDFGLSKIKRNTLVSGGVRGTLPWMAPELLNGSSSKVSEKVDVFSFGIVLWEILTGEEPYANMHYGAIIGGIVNNTLRPTIPGFCDDEWRTLMEECWAPNPMARPSFTEIAGRLRVMSSAATSTQSKPSAHRASK
Turning to B3, the binding entry in experiment [1] and in experiment [2] was “binds” throughout.

B4: RAF20-SCFP3AC (protein, UniProt Q9SAJ2 1-1248)
chain: MDKARHQQLFQHSMEPGYRNETVPQPFMPDQTGSASANMRPPNSNGSDVKAVHNFSIQTGEEFSLEFMRDRVIPQRSSNPNGAGDMNYNTGYMELRGLIGISHTGSECASDVSRFSTVENGTSDIERTNSSLHEFGNKLNHVQSAPQALLSKDSSVGNLHGYKNTSSSASGSVTAKVKILCSFGGKILPRPGDSKLRYVGGETHIISIRKDISWQELRQKILEIYYQTRVVKYQLPGEDLDALVSVSSEEDLQNMLEEYNEMENRGGSQKLRMFLFSISDMDDALLGVNKNDGDSEFQYVVAVNGMDIGSGKNSTLLGLDSSSANNLAELDVRNTEGINTIAGDVVGVGASQLMVNGFQQTSAQQSESIPPSSSLHYSQSIPLNAAYQLQQSVPPSSALHYPQSITPGSSLQYPQSITPGSSYQYPQSIIPGSASSYGIYPQYYGHVVQHGERERFPLYPDHSSNYSAIGETTSSIPIQGHVSQQGGWAEGYPYPGSTPKSTQALAEEQKVSSDMKIREEVEPENRKTPGNDHQNPPQIDDVEVRNHNQVREMAVATTPPSQDAHLLPPSRDPRQNTTAKPATYRDAVITGQVPLSGIEDQLSTSSSTYAPVHSDSESNLIDLNYPEPEQSSQRVYCSERIPREQLELLNRLSKSDNSLSSQFVTSESPANTAQQDSGKEAVGKSHDEFKTVNDDANHHTHKDVETIFEKVGVSDETLESEPLHKIVNPDDANKNRVVNGADTEIGVSNLSHVNAAMSHVIPEEQASLQGDILIDINDRFPRDFLSEIFSQAISEDTSTVRPYPHDGAAVSMNVQNHDRKNWSYFQQLAEDQFIQRDVVLDQADSRIPSDRKDGGESSRLPYVSPLSRDGISTNLANPQLTLGQDYGGNFSEKDGGGTGSIPPALENEQMKVTESEEFGAMVENLRTPDSEPKDEKTETRHAALPPLGSEFDYSGLQIIKNEDLEELRELGSGTFGTVYHGKWRGSDVAIKRIKKSCFAGRSSEQERLTGEFWGEAEILSKLHHPNVVAFYGVVKDGPGGTLATVTEYMVDGSLRHVLVRKDRHLDRRKRLIIAMDAAFGMEYLHSKNTVHFDLKCDNLLVNLKDPSRPICKVGDFGLSKIKRNTLVSGGVRGTLPWMAPELLNGSSSKVSEKVDVFSFGIVLWEILTGEEPYANMHYGAIIGGIVNNTLRPTIPGFCDDEWRTLMEECWAPNPMARPSFTEIAGRLRVMSSAATSTQSKPSAHRASK
B4: the binding entry is listed as “binds” in experiment [3], “no binding” in experiment [4] and “binds” in experiment [5].
